Results published in publication PMC7819943, “Rice protein-binding microarrays: a tool to detect cis-acting elements near promoter regions in rice”.
The other results are listed elsewhere or left out.

target: T1, OsWOX13 (Oryza sativa, UniProt Q5QMM3 1-267); test: protein-binding microarray (RPBM); PBS, 2% BSA, 51.3 ng/ul salmon testes DNA, 50 uM zinc acetate, 200 nM TF, 25 C, 1 h; high values mean tight binding; settings: protein: recombinant; tags: N-terminal polyhistidine and DsRed monomer fusion (pET32a); label: CyDye5-dUTP incorporated in the synthesized complementary strand; 3' TTTTT single-stranded linker to array surface; dsDNA, one strand shown
T1 sequence: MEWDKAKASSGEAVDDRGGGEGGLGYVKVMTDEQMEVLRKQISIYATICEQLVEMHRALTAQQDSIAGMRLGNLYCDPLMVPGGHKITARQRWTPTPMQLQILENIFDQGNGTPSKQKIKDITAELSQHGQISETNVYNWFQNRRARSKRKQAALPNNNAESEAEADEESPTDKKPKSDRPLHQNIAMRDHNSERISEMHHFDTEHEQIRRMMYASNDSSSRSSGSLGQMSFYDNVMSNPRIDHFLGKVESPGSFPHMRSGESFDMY
In short: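 Ni–NTA purification followed expression in E. coli BL21-CodonPlus of transcription factors fused N-terminally to a polyhistidine tag and DsRed. At 200 nM in PBS with 2% BSA, salmon testes DNA and 50 µM zinc acetate, the protein was incubated for 1 h at 25 °C with a custom Agilent array that had been primer-extended with Cy5-dUTP and blocked with 2% BSA. After washing, the array was read on an Axon 4000B scanner. The binding signal is per-feature fluorescence intensity in arbitrary units.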

Point of comparison: “GCCGGGAGGGAGGGAGGGAGGGAGGGAGGGAGACCCCGCACGGAGTCACCTAGTGCAG”, binding signal 9960 fluorescence intensity (a.u.). Against it:
- ATAAATCACATATAACAAAATAGGACTTGAACTACTCCTGCGGAGTCACCTAGTGCAG — lower, 3720 fluorescence intensity (a.u.)
- GTAATAATTAAAACTCAATCAATCATATATTAATACCACCCGGAGTCACCTAGTGCAG — higher, 44400 fluorescence intensity (a.u.)
- AAAATTAACCATAAATCAATATGATGGGAGAATGGTAGTACGGAGTCACCTAGTGCAG — higher, 20100 fluorescence intensity (a.u.)
- ACACAAATTTCCAACTTTTCCGTCACATCGTTCCAATTTCCGGAGTCACCTAGTGCAG — lower, 3250 fluorescence intensity (a.u.)
- ACTGACTGGCACACCCACATCTCATCATATTTGGACCTGCCGGAGTCACCTAGTGCAG — higher, 33700 fluorescence intensity (a.u.)
- TAAATTAATATTTGTCCAGTCAAGCTGGAATACGTCGTAGCGGAGTCACCTAGTGCAG — lower, 7760 fluorescence intensity (a.u.)
- CCGATTGGATACGTCTGATTTTAATTAATGGGCCAGGAAGCGGAGTCACCTAGTGCAG — higher, 14000 fluorescence intensity (a.u.)
- GTATATTAATATATGATATACAGATTGCCAGGCAATAAACCGGAGTCACCTAGTGCAG — lower, 3840 fluorescence intensity (a.u.)
- CACTGATTTGGTGGCTGACATGTGGACCTGAGAGTTGTGTCGGAGTCACCTAGTGCAG — higher, 35300 fluorescence intensity (a.u.)
- TTTGGATTGATGCTAAAATATGCCCTACCAATTGTTTAGCCGGAGTCACCTAGTGCAG — higher, 30000 fluorescence intensity (a.u.)
- TCCTTGATTTCTCCCCTCTCTCTGTCATTTCTCTCTTCCTCGGAGTCACCTAGTGCAG — higher, 13500 fluorescence intensity (a.u.)
- CACACTAATTACCTGTTTAATTAATTAACTCTCCAGCCGGCGGAGTCACCTAGTGCAG — higher, 52000 fluorescence intensity (a.u.)
- GTCATAATTATTTGAGTTACATATAAACAACGAGGTAACACGGAGTCACCTAGTGCAG — higher, 20500 fluorescence intensity (a.u.)
- ATTAATTGTATTCTGATAAAATTCGTGTCCATGCAGTTATCGGAGTCACCTAGTGCAG — higher, 27600 fluorescence intensity (a.u.)
- CAAATAATTTTGTATGATTGCTAGCCGTGTAATTAGGTAGCGGAGTCACCTAGTGCAG — higher, 43300 fluorescence intensity (a.u.)
- CAATAAATTTTGAGGATAAACAAATATGGCTAAAAGTTCACGGAGTCACCTAGTGCAG — lower, 3360 fluorescence intensity (a.u.)
- CTTGGCTTCAATCCAAATTCTTGATTACAGCAAGACGGGACGGAGTCACCTAGTGCAG — higher, 14000 fluorescence intensity (a.u.)
- TGTTAATTATGCCCTCGGTCCAATTGTGATATTCTGTTGACGGAGTCACCTAGTGCAG — higher, 38300 fluorescence intensity (a.u.)
- CTGGAAATTTGGGTTAAATTTCTGGGCGTGACAACGACGACGGAGTCACCTAGTGCAG — higher, 10000 fluorescence intensity (a.u.)
- ACTTGATTTATTTAAACTATAAACTTGCAACTTAAAAGTTCGGAGTCACCTAGTGCAG — higher, 37600 fluorescence intensity (a.u.)
- GACACCCTTATGATTACTTTTAAAAGATAGGGCCAACATACGGAGTCACCTAGTGCAG — lower, 3370 fluorescence intensity (a.u.)
- GCTGATTACATTTCCTGCACTGAAGTACAAACACGAGGATCGGAGTCACCTAGTGCAG — higher, 38000 fluorescence intensity (a.u.)
- GCACGGTTTGATTTGACGAAATGGTGTACAAATTCCAGCACGGAGTCACCTAGTGCAG — lower, 9830 fluorescence intensity (a.u.)
- GGCGGTGGGTGGGTGGAGCCGTGGAGGGATGGAGGGAGGGCGGAGTCACCTAGTGCAG — higher, 9980 fluorescence intensity (a.u.)
- ATTTCTTTAATTAATTAATTAATTAACATATATATCCCTTCGGAGTCACCTAGTGCAG — higher, 60600 fluorescence intensity (a.u.)
- GTGTAATTACACTGTAATTCCTCTGTCAAAAGAAATTTAACGGAGTCACCTAGTGCAG — higher, 16200 fluorescence intensity (a.u.)
- ATATTAATCCATGATTTGCTACAGTGATGCTATAATTGTCCGGAGTCACCTAGTGCAG — higher, 13400 fluorescence intensity (a.u.)
- TTGGGATTAATTTGGTTGTGCTTTCTCCTCTTCCACCAGCCGGAGTCACCTAGTGCAG — higher, 13600 fluorescence intensity (a.u.)
- AAATAAATTTGAACTAAAATGAAAATTTGAAGGTATAGCACGGAGTCACCTAGTGCAG — higher, 12600 fluorescence intensity (a.u.)
- AACTGCAAATTTGTCTATATACAAAATTTGTCTCCACGTTCGGAGTCACCTAGTGCAG — lower, 8160 fluorescence intensity (a.u.)
- CTTTTCCTTTGTCTCTTTCCGTCATTATCTAATATTCTTTCGGAGTCACCTAGTGCAG — lower, 5970 fluorescence intensity (a.u.)
- GATAATGCATATGATTGACGTCGTGTTTATCTGATGTTAGCGGAGTCACCTAGTGCAG — higher, 31000 fluorescence intensity (a.u.)
- AAATAATTGCACAGTTTGCATGTAAATTGCGAGACGGACCCGGAGTCACCTAGTGCAG — higher, 25800 fluorescence intensity (a.u.)
- GAATAAATTGCATGAGCAATGGACGTTTTCCTAGCCTTGTCGGAGTCACCTAGTGCAG — lower, 6910 fluorescence intensity (a.u.)
- TTTTGTGATAGATTTTATATTAAATATATAGTTTTGTTTTCGGAGTCACCTAGTGCAG — higher, 23400 fluorescence intensity (a.u.)
- CGGGTCAATCAGAAAATTCGGTGGCAATAATATATATACCCGGAGTCACCTAGTGCAG — higher, 15400 fluorescence intensity (a.u.)
- TTCAAAATATCTCGGATTGATAAATTTTGGAGGTAGTAGTCGGAGTCACCTAGTGCAG — lower, 6920 fluorescence intensity (a.u.)
- TCATCATCTTTAATTAATTCGATCTCTCCGGGACTATCTACGGAGTCACCTAGTGCAG — lower, 4500 fluorescence intensity (a.u.)
- ATCAATCATGGGCAAATCATATAGGACTTGGTTGCACATTCGGAGTCACCTAGTGCAG — higher, 26700 fluorescence intensity (a.u.)
- ATAAATTAAAGAAGTTACAATACTGGTGCCATGGAGAAACCGGAGTCACCTAGTGCAG — lower, 5540 fluorescence intensity (a.u.)
- AGTTATTTTGTTAACTATTTGATTGGTGTTGACAGGTAGGCGGAGTCACCTAGTGCAG — higher, 23100 fluorescence intensity (a.u.)
